{
  "source": "PubChem BioAssay AID1508642",
  "about": "(National Center for Advancing Translational Sciences (NCATS), 2021)",
  "note": "Among all 43,000 compounds or so, about 200 (0.47%) were called active. Inconclusive results (about 12%) are left out. Calls come from the whole dose curve; as a rule, active = well fitted cell-killing curve with a large enough effect; inconclusive = small, poorly fitted or top-dose-only effect, or effect the other way; inactive = flat fitted curve, though single readings scatter. The list shows a part of the results. % is set by controls: 0 for no effect and ±100 for the full control effect.",
  "data": [
    {"assay": "Cell viability qHTS assay in S16 Pmp22-F2sN cells; note: nearly all actives have a fitted effect of over 65% in size", "conditions": "S16 Pmp22-F2sN Schwann cells viability, CellTiter-Glo, 24 h; at 57.5 µM (top of the series)", "in_short": "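Viability was measured by CellTiter-Glo luminescence (15 min, room temperature). This followed 24 h at 37 °C of compound exposure (23 nL pin transfer) in S16 Pmp22-F2sN Schwann cells, 500-1,000 per well.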", "values": [
      {"smiles": "CCOc1ccc2nc(NC(=O)c3cccn(Cc4ccccc4C)c3=O)sc2c1", "activity change, negative = cytotoxicity": "inactive: -5.8%"},
      {"smiles": "O=C(Nc1ccc2c(c1)OCO2)c1cccn(Cc2ccc(F)cc2)c1=O", "activity change, negative = cytotoxicity": "inactive: 10%"},
      {"smiles": "CC(C)c1ccc(NC(=O)CN2C(=O)CN=C(c3ccccc3)c3ccccc32)cc1", "activity change, negative = cytotoxicity": "inactive: 0.381%"},
      {"smiles": "COc1ccc(OCC(=O)N2CCN(CCc3ccccn3)CC2)cc1", "activity change, negative = cytotoxicity": "inactive: 13.4%"},
      {"smiles": "CCCc1ccc(OCC(=O)Nc2ccc(Cl)cc2C(=O)c2ccccc2)cc1", "activity change, negative = cytotoxicity": "inactive: 11.1%"},
      {"smiles": "Cc1cccc(CN2C(=O)CN=C(c3ccccc3)c3cc(Cl)ccc32)c1", "activity change, negative = cytotoxicity": "inactive: -14.5%"},
      {"smiles": "CCOC(=O)c1ccc(NC(=O)c2cccn(Cc3ccccc3F)c2=O)cc1", "activity change, negative = cytotoxicity": "inactive: 2.13%"},
      {"smiles": "N#Cc1ccccc1NC(=O)c1cccn(Cc2ccccc2)c1=O", "activity change, negative = cytotoxicity": "inactive: -2.07%"},
      {"smiles": "COc1ccc(Cl)cc1NC(=O)c1sc2nc3c(cc2c1N)N1CCC3CC1", "activity change, negative = cytotoxicity": "inactive: 2.08%"},
      {"smiles": "CCC(C(=O)Nc1ccccc1F)N1C(=O)CN=C(c2ccccc2)c2ccccc21", "note": "(centres undefined)", "activity change, negative = cytotoxicity": "inactive: -20%"},
      {"smiles": "Cn1c(=O)n(C)c2cc(CNCCc3ccccc3F)ccc21", "activity change, negative = cytotoxicity": "inactive: 0.569%"},
      {"smiles": "O=C1CC(c2ccccc2Br)c2c(c3ccccc3oc2=O)O1", "note": "(centres undefined)", "activity change, negative = cytotoxicity": "inactive: -3.31%"},
      {"smiles": "Cc1ccc(-n2c(/C=C/c3ccccc3)nc3ccccc3c2=O)cc1Cl", "activity change, negative = cytotoxicity": "inactive: -16.5%"},
      {"smiles": "Cc1cccc(C)c1OCC(=O)Nc1ccc(Cl)cc1C(=O)c1ccccc1", "activity change, negative = cytotoxicity": "inactive: 1.7%"},
      {"smiles": "O=C(COc1ccccc1[N+](=O)[O-])N1CCN(CCc2ccncc2)CC1", "activity change, negative = cytotoxicity": "inactive: 3.06%"},
      {"smiles": "Cc1ccc(-n2c(/C=C/c3cc(Br)cs3)nc3ccccc3c2=O)cc1C", "activity change, negative = cytotoxicity": "inactive: -1.63%"},
      {"smiles": "COc1ccc(C)cc1NC(=O)c1cccn(Cc2ccccc2Cl)c1=O", "activity change, negative = cytotoxicity": "inactive: 6.24%"},
      {"smiles": "Cc1ccc(CNC(=O)CCCn2c(=O)c3sccc3n(CC(=O)Nc3c(C)cccc3C)c2=O)cc1", "activity change, negative = cytotoxicity": "inactive: 4.13%"},
      {"smiles": "Cc1cccc(-n2c(/C=C\\c3cccc(Br)c3)nc3ccccc3c2=O)c1", "activity change, negative = cytotoxicity": "inactive: -10.8%"},
      {"smiles": "COc1ccc(C2CC(=O)Oc3c2c(=O)oc2ccccc32)c(OC)c1OC", "note": "(centres undefined)", "activity change, negative = cytotoxicity": "inactive: 5.17%"},
      {"smiles": "Cc1ccc(Cn2cccc(C(=O)Nc3ccc(C)c(Cl)c3)c2=O)cc1", "activity change, negative = cytotoxicity": "inactive: -3.66%"},
      {"smiles": "COc1ccc(NC(=O)CCc2nc(C3=CCN(Cc4cccc(C)c4)CC3)no2)c(OC)c1", "activity change, negative = cytotoxicity": "inactive: -5.17%"},
      {"smiles": "CCOc1ccc(CN(CCc2ccc3c(c2)OCO3)Cc2ccc(CC)cc2)cc1", "activity change, negative = cytotoxicity": "inactive: -9.42%"},
      {"smiles": "Cc1ccccc1-n1nc(C)c2c1NC(=O)CSC2c1ccccc1C(F)(F)F", "note": "(centres undefined)", "activity change, negative = cytotoxicity": "inactive: -12.6%"},
      {"smiles": "COc1ccc(NC(=O)CN2C(=O)CN=C(c3ccccc3)c3ccccc32)c(OC)c1", "activity change, negative = cytotoxicity": "inactive: 13%"},
      {"smiles": "COc1ccccc1CN1CCN(C(=O)COc2cccc(C)c2)CC1", "activity change, negative = cytotoxicity": "inactive: 1.93%"},
      {"smiles": "CCOc1ccc(CN(CCc2ccc3c(c2)OCO3)Cc2cccc(Br)c2)cc1", "activity change, negative = cytotoxicity": "inactive: 12.5%"},
      {"smiles": "O=C(COc1ccccc1Cl)N1CCN(CCc2ccccn2)CC1", "activity change, negative = cytotoxicity": "inactive: 6.52%"},
      {"smiles": "Cc1nnc(NC(=O)c2cccn(Cc3ccccc3)c2=O)s1", "activity change, negative = cytotoxicity": "inactive: 5.17%"},
      {"smiles": "Cc1cccc(OC(C)C(=O)NCC2(N(C)C)CCCCC2)c1C", "note": "(centres undefined)", "activity change, negative = cytotoxicity": "inactive: 8.48%"},
      {"smiles": "O=C(Nc1nc2ccccc2s1)c1cccn(Cc2ccccc2)c1=O", "activity change, negative = cytotoxicity": "inactive: 14.2%"},
      {"smiles": "CCCc1nc(SC)ncc1C(=O)Nc1ccc(Cl)cc1C(=O)c1ccccc1", "activity change, negative = cytotoxicity": "inactive: 9.76%"},
      {"smiles": "Cc1ccc(-n2c(/C=C/c3cccc(C(F)(F)F)c3)nc3ccccc3c2=O)cc1", "activity change, negative = cytotoxicity": "inactive: 1%"},
      {"smiles": "NC(=O)c1ccc(NC(=O)c2cccn(Cc3ccccc3)c2=O)cc1", "activity change, negative = cytotoxicity": "inactive: -1.13%"},
      {"smiles": "CCOc1ccc(CN2C(=O)c3ccccc3Sc3ccc(C(=O)N4CCC5(CC4)OCCO5)cc32)cc1", "activity change, negative = cytotoxicity": "inactive: 20.6%"},
      {"smiles": "Cc1c(C(c2ccc(O)cc2)c2c(O)c3ccccc3oc2=O)c(=O)n(-c2ccccc2)n1C", "note": "(centres undefined)", "activity change, negative = cytotoxicity": "inactive: 4.14%"},
      {"smiles": "CCSc1nnc(NC(=O)c2cccn(Cc3ccc(Cl)cc3)c2=O)s1", "activity change, negative = cytotoxicity": "inactive: 1.3%"},
      {"smiles": "O=c1c2ccccc2nc(/C=C\\c2cccc(Br)c2)n1-c1ccc(O)cc1", "activity change, negative = cytotoxicity": "inactive: -2.94%"},
      {"smiles": "Cc1ccc2scc(N3CCN(C)CC3)c(=O)c2c1", "activity change, negative = cytotoxicity": "inactive: 6.04%"},
      {"smiles": "Cc1ccc(-n2c(/C=C/c3ccccc3)nc3ccccc3c2=O)cc1C", "activity change, negative = cytotoxicity": "inactive: -10.2%"},
      {"smiles": "CCn1c(CN2CCN(C)CC2)nc2ccccc21", "activity change, negative = cytotoxicity": "inactive: 8.59%"},
      {"smiles": "O=C(c1ccc2c(c1)N(Cc1c(F)cccc1Cl)C(=O)c1ccccc1S2)N1CCC2(CC1)OCCO2", "activity change, negative = cytotoxicity": "inactive: 16.9%"},
      {"smiles": "Cc1ccc(C)c(CN2C(=O)c3ccccc3Sc3ccc(C(=O)N4CCC5(CC4)OCCO5)cc32)c1", "activity change, negative = cytotoxicity": "inactive: -27.7%"},
      {"smiles": "CCOC(=O)c1ccc(NC(=O)CSc2nc3c(cc2C#N)N2CCC3CC2)cc1", "activity change, negative = cytotoxicity": "inactive: 21.1%"}
    ]}
  ]
}
